For 40 compounds, cytotoxicity call and growth inhibition call results are on record in the antibiotic and cytotoxicity screens of Wong et al. (2023).

This is one part of the list.

One assay concerns HepG2. In words: cytotoxicity call (relative viability < 0.9). The conditions noted are these: 10 µM.
Turning to `COc1cccc(NC(=O)C[C@H]2CC[C@H]3[C@H](COc4ccc(NC(=O)C5CCOCC5)cc4C(=O)N3C)O2)c1`, the cytotoxicity call was “inactive”.
`COc1cccc(C(=O)Nc2ccc3c(c2)C(=O)N(C)[C@H]2CC[C@H](CC(=O)NCC4CC4)O[C@@H]2CO3)c1`: the cytotoxicity call is “inactive”.
On to `C[C@@H]1CN([C@H](C)CO)C(=O)c2cc(NC(=O)NC3CCCCC3)ccc2O[C@H]1CN(C)Cc1ccc(Oc2ccccc2)cc1`, for which the cytotoxicity call is “inactive”.
Take `CN(C)CCCNC(=O)C[C@@H]1CC[C@@H]2[C@@H](COc3ccc(NC(=O)c4cccc(F)c4)cc3C(=O)N2C)O1`: the cytotoxicity call was “inactive”.
For the compound `O=C(O)CCc1nc2ccccc2[nH]c1=O`, the cytotoxicity call was “inactive”.
Turning to `COc1ccc(NC(=O)Nc2cccc3c2O[C@H](CN(C)CC2CCCCC2)[C@@H](C)CN([C@H](C)CO)C3=O)cc1`, the cytotoxicity call was “inactive”.
On the same count and under the same terms, in the case of `C[C@@H]1CCCCO[C@H](CN(C)C(=O)Nc2ccc(C(F)(F)F)cc2)[C@@H](C)CN([C@H](C)CO)C(=O)c2cc(NC(=O)Cc3ccccc3)ccc2O1` it was “inactive”; in that of `Cc1noc(C)c1S(=O)(=O)Nc1ccc2c(c1)C(=O)N([C@H](C)CO)C[C@H](C)[C@@H](CN(C)S(=O)(=O)c1ccc(F)cc1)O2`, “inactive”; in that of `C[C@@H]1CCCCO[C@H](CN(C)Cc2ccc(C(F)(F)F)cc2)[C@@H](C)CN([C@@H](C)CO)C(=O)c2cc(NC(=O)Nc3cccc4ccccc34)ccc2O1`, “inactive”.
As for `O=C(NCc1ccccc1)OCCO`, the cytotoxicity call is “inactive”.
On to `Cc1noc(C)c1NC(=O)Nc1ccc2c(c1)C(=O)N([C@@H](C)CO)C[C@H](C)[C@@H](CN(C)Cc1ccncc1)OCCCC[C@@H](C)O2`, for which the cytotoxicity call is “inactive”.
As for `CC(C(=O)O)c1cccc(Oc2ccccc2)c1` (stereo not drawn), the cytotoxicity call is “inactive”.
Same read-out and setting: in the case of `C[C@@H]1CCCCO[C@@H](CN(C)C(=O)c2ccccc2)[C@H](C)CN([C@H](C)CO)C(=O)c2cc(NC(=O)c3ccccc3)ccc2O1` it was “inactive”.
Consider `C[C@@H]1CCCCO[C@H](CN(C)Cc2ccc(C(=O)O)cc2)[C@H](C)CN([C@@H](C)CO)C(=O)c2cc(NC(=O)c3ccccc3)ccc2O1`, for which the cytotoxicity call is “inactive”.
`CCCCCCCCCCCCCCCCCCOCC(O)CO` (stereo not drawn): the cytotoxicity call was “inactive”.
`COc1ccc(NC(=O)N(C)C[C@@H]2OCCCC[C@@H](C)Oc3ccc(NS(=O)(=O)c4ccc(OC)cc4)cc3C(=O)N([C@H](C)CO)C[C@@H]2C)cc1`: the cytotoxicity call was “inactive”.
With `C[C@@H]1CN([C@@H](C)CO)S(=O)(=O)c2ccc(-c3cncnc3)cc2O[C@H]1CN(C)C(=O)Cc1ccncc1`, the cytotoxicity call is “inactive”.
On to `C[C@@H]1CCCCO[C@H](CN(C)Cc2ccccc2)[C@@H](C)CN([C@@H](C)CO)C(=O)c2cc(NC(=O)Cc3ccccc3)ccc2O1`, for which the cytotoxicity call was “active”.
For the compound `C[C@@H]1CCCCO[C@H](CN(C)C(=O)Nc2ccc(C(F)(F)F)cc2)[C@H](C)CN([C@H](C)CO)C(=O)c2cc(NC(=O)Nc3ccc(F)cc3)ccc2O1`, the cytotoxicity call is “inactive”.
Same read-out and setting: the value for `C[C@H]1CCCCO[C@@H](CN(C)Cc2ccncc2)[C@@H](C)CN([C@@H](C)CO)C(=O)c2cc(NS(=O)(=O)c3ccc(Cl)cc3)ccc2O1` was “inactive”.
On to `O=C(O)/C=C/C(=O)O`, for which the cytotoxicity call is “inactive”.
As for `CCCC#Cc1cnc2c(c1)C(=O)N([C@H](C)CO)C[C@H](C)[C@H](CN(C)S(=O)(=O)c1cn(C)cn1)O2`, the cytotoxicity call was “inactive”.
Turning to `CC(C)NC(=O)Nc1cccc2c1O[C@@H](CN(C)C(=O)Nc1ccc3c(c1)OCO3)[C@H](C)CN([C@H](C)CO)C2=O`, the cytotoxicity call is “inactive”.

A further assay deals with S. aureus RN4220. In words: growth inhibition call (relative growth <= 0.2). Conditions: 50 µM.
As to `Cc1ccc(N2C[C@@H](N)CC2=O)cc1C`, the growth inhibition call was “inactive”.
On the same count and under the same terms, in the case of `C[C@H]1CN([C@@H](C)CO)C(=O)Cc2cc(NS(=O)(=O)c3cn(C)cn3)ccc2O[C@@H]1CN(C)S(C)(=O)=O` it was “inactive”; in that of `C[C@H](CO)N1C[C@H](C)[C@H](CN(C)CC2CCCCC2)OCCCC[C@H](C)Oc2ccc(NS(=O)(=O)c3ccc(Cl)cc3)cc2C1=O`, “inactive”.
Still for that read-out and setting: the value for `O=C1c2ccccc2[C@@]2(Cc3ccccc3N(CCN3CCOCC3)C2=O)[C@H](c2ccc(CO)cc2)N1Cc1ccccc1Cl` was “inactive”; that for `Cc1ccc(S(=O)(=O)N(C)C[C@@H]2OCCCC[C@H](C)Oc3ccc(NS(=O)(=O)c4ccc(Cl)cc4)cc3C(=O)N([C@@H](C)CO)C[C@@H]2C)cc1` was “inactive”; that for `C[C@H](CO)N1C[C@H](C)[C@H](CN(C)Cc2ccc(C(=O)Nc3ccccc3N)cc2)OCCCC[C@H](C)Oc2ccc(N(C)C)cc2C1=O` was “inactive”.
For the compound `CO[C@H](CN(C)C(=O)c1ccc2c(c1)OCO2)[C@H](C)CN([C@@H](C)CO)S(=O)(=O)c1ccc(Cl)cc1`, the growth inhibition call was “inactive”.
Regarding `Cc1noc(C)c1NC(=O)N(C)C[C@@H]1OCCCC[C@H](C)Oc2ccc(NC(=O)C3CCCCC3)cc2C(=O)N([C@H](C)CO)C[C@H]1C`, the growth inhibition call was “inactive”.
Turning to `COc1ccc(NC(=O)Nc2ccc3c(c2)C(=O)N([C@@H](C)CO)C[C@@H](C)[C@@H](CN(C)CC2CCCCC2)OCCCC[C@@H](C)O3)cc1`, the growth inhibition call is “inactive”.
The same measure, in the same setting: in the case of `Cn1cnc(S(=O)(=O)N2C[C@@H](O)COC[C@@H]3O[C@H](CC(=O)NCc4cccc(F)c4)CC[C@H]32)c1` it was “inactive”; in that of `COc1ccc(CN(C)C[C@@H]2OCCCC[C@@H](C)Oc3ccc(NC(=O)C4CCCCC4)cc3C(=O)N([C@@H](C)CO)C[C@@H]2C)cc1`, “inactive”; in that of `C[C@H](CO)N1C[C@H](C)[C@H](CN(C)S(=O)(=O)c2cn(C)cn2)OCc2ccccc2-c2ccccc2C1=O`, “inactive”.
Same read-out and setting: in the case of `COc1ccc2c3c(n(c2c1)C)[C@H](CO)N(C[C@]13CN(C1)C(=O)Cc1ccccc1)C(=O)c1ccccn1` it was “inactive”.
`C[C@@H]1CN([C@@H](C)CO)C(=O)c2ccccc2-c2ccccc2CO[C@@H]1CN(C)C(=O)Nc1ccc(F)cc1`: the growth inhibition call was “inactive”.
`Cc1noc(C)c1S(=O)(=O)N(C)C[C@@H]1OCCCC[C@@H](C)Oc2ccc(NC(=O)Nc3ccccc3)cc2C(=O)N([C@@H](C)CO)C[C@@H]1C`: the growth inhibition call is “inactive”.
Regarding `CC(C)NC(=O)Nc1ccc2c(c1)C(=O)N([C@H](C)CO)C[C@@H](C)[C@@H](CN(C)C(=O)C1CCCCC1)OCCCC[C@@H](C)O2`, the growth inhibition call was “inactive”.
Regarding `COc1ccc(S(=O)(=O)Nc2ccc3c(c2)C(=O)N([C@@H](C)CO)C[C@H](C)[C@@H](CN(C)C(=O)Nc2ccccc2)OCCCC[C@@H](C)O3)cc1`, the growth inhibition call is “inactive”.
On to `COc1cccc(NC(=O)C[C@H]2CC[C@H]3[C@H](COc4ccc(NC(=O)C5CCOCC5)cc4C(=O)N3C)O2)c1`, for which the growth inhibition call was “inactive”.
As to `COc1cccc(C(=O)Nc2ccc3c(c2)C(=O)N(C)[C@H]2CC[C@H](CC(=O)NCC4CC4)O[C@@H]2CO3)c1`, the growth inhibition call is “inactive”.
`C[C@@H]1CN([C@H](C)CO)C(=O)c2cc(NC(=O)NC3CCCCC3)ccc2O[C@H]1CN(C)Cc1ccc(Oc2ccccc2)cc1`: the growth inhibition call is “inactive”.
As for `CN(C)CCCNC(=O)C[C@@H]1CC[C@@H]2[C@@H](COc3ccc(NC(=O)c4cccc(F)c4)cc3C(=O)N2C)O1`, the growth inhibition call was “inactive”.
On the same count and under the same terms, in the case of `O=C(O)CCc1nc2ccccc2[nH]c1=O` it was “inactive”.
For `COc1ccc(NC(=O)Nc2cccc3c2O[C@H](CN(C)CC2CCCCC2)[C@@H](C)CN([C@H](C)CO)C3=O)cc1`, the growth inhibition call is “inactive”.
`C[C@@H]1CCCCO[C@H](CN(C)C(=O)Nc2ccc(C(F)(F)F)cc2)[C@@H](C)CN([C@H](C)CO)C(=O)c2cc(NC(=O)Cc3ccccc3)ccc2O1`: the growth inhibition call is “inactive”.
Consider `Cc1noc(C)c1S(=O)(=O)Nc1ccc2c(c1)C(=O)N([C@H](C)CO)C[C@H](C)[C@@H](CN(C)S(=O)(=O)c1ccc(F)cc1)O2`, for which the growth inhibition call is “inactive”.
`C[C@@H]1CCCCO[C@H](CN(C)Cc2ccc(C(F)(F)F)cc2)[C@@H](C)CN([C@@H](C)CO)C(=O)c2cc(NC(=O)Nc3cccc4ccccc34)ccc2O1`: the growth inhibition call is “inactive”.
Regarding `O=C(NCc1ccccc1)OCCO`, the growth inhibition call is “inactive”.
Turning to `Cc1noc(C)c1NC(=O)Nc1ccc2c(c1)C(=O)N([C@@H](C)CO)C[C@H](C)[C@@H](CN(C)Cc1ccncc1)OCCCC[C@@H](C)O2`, the growth inhibition call is “inactive”.
For `CC(C(=O)O)c1cccc(Oc2ccccc2)c1` (stereo not drawn), the growth inhibition call was “inactive”.
On to `C[C@@H]1CCCCO[C@@H](CN(C)C(=O)c2ccccc2)[C@H](C)CN([C@H](C)CO)C(=O)c2cc(NC(=O)c3ccccc3)ccc2O1`, for which the growth inhibition call is “inactive”.
Take `C[C@@H]1CCCCO[C@H](CN(C)Cc2ccc(C(=O)O)cc2)[C@H](C)CN([C@@H](C)CO)C(=O)c2cc(NC(=O)c3ccccc3)ccc2O1`: the growth inhibition call is “inactive”.
On to `CCCCCCCCCCCCCCCCCCOCC(O)CO` (stereo not drawn), for which the growth inhibition call was “inactive”.
Take `COc1ccc(NC(=O)N(C)C[C@@H]2OCCCC[C@@H](C)Oc3ccc(NS(=O)(=O)c4ccc(OC)cc4)cc3C(=O)N([C@H](C)CO)C[C@@H]2C)cc1`: the growth inhibition call is “inactive”.
Still for that read-out and setting: in the case of `C[C@@H]1CN([C@@H](C)CO)S(=O)(=O)c2ccc(-c3cncnc3)cc2O[C@H]1CN(C)C(=O)Cc1ccncc1` it was “inactive”; in that of `C[C@@H]1CCCCO[C@H](CN(C)Cc2ccccc2)[C@@H](C)CN([C@@H](C)CO)C(=O)c2cc(NC(=O)Cc3ccccc3)ccc2O1`, “inactive”.
For the compound `C[C@@H]1CCCCO[C@H](CN(C)C(=O)Nc2ccc(C(F)(F)F)cc2)[C@H](C)CN([C@H](C)CO)C(=O)c2cc(NC(=O)Nc3ccc(F)cc3)ccc2O1`, the growth inhibition call is “inactive”.
As for `C[C@H]1CCCCO[C@@H](CN(C)Cc2ccncc2)[C@@H](C)CN([C@@H](C)CO)C(=O)c2cc(NS(=O)(=O)c3ccc(Cl)cc3)ccc2O1`, the growth inhibition call is “inactive”.
For the compound `O=C(O)/C=C/C(=O)O`, the growth inhibition call is “inactive”.
In the case of `CCCC#Cc1cnc2c(c1)C(=O)N([C@H](C)CO)C[C@H](C)[C@H](CN(C)S(=O)(=O)c1cn(C)cn1)O2`, the growth inhibition call is “inactive”.
As to `CC(C)NC(=O)Nc1cccc2c1O[C@@H](CN(C)C(=O)Nc1ccc3c(c1)OCO3)[C@H](C)CN([C@H](C)CO)C2=O`, the growth inhibition call is “inactive”.
